Reference: PubChem BioAssay AID624171 (National Center for Advancing Translational Sciences (NCATS), 2012)
About 1,200 (0.29%) of roughly 410,000 compounds were called active. The shares of active, inactive and inconclusive entries below differ from those in the screen. The call rests on the fitted dose curve; in most records, active means well fitted activation curve with a large enough effect; inconclusive means small, poorly fitted or top-dose-only effect; inactive means flat fitted curve, though single readings scatter. A potency beside an inconclusive call is a rough fit, not a confirmed value.
Potency means the concentration at half of the fitted maximal effect; tags describe the fitted curve by direction and shape.

Assay: qHTS of Nrf2 Activators; further: nearly all actives have a fitted effect of over 65% in size; on activation: % of control where 0% means no effect
Details: AREc32 ARE-luciferase reporter (MCF7-derived line), luminescence, 24 h; activation: at 46.1 µM (top of the series)
Method in brief: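 Luciferase luminescence (Steady-Glo, 30 min at room temperature) served as the read-out of ARE activation in AREc32 cells treated with compounds for 24 hr at 37 deg C.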
With `CCOC(=O)c1c(NC(=O)C2C3C=CC(CC3)C2C(=O)O)sc(C)c1C` (stereo unspecified) the “activation” value was inactive: -0.0808%. For `COc1ccc(-n2nc3c(c2NC(=O)CCCl)CSC3)cc1`, the Potency was inconclusive: 28.2 µM [activator, partial curve, poor fit]. With `O=C(Nc1cc(S(=O)(=O)N2CCOCC2)ccc1Cl)c1cc([N+](=O)[O-])ccc1Cl` the Potency was inconclusive: 22.4 µM [activator, single point]. With `Oc1ccccc1N=Cc1sc2ccccc2c1Cl` the Potency was active: 11.2 µM. With `Cc1ccc(S(=O)(=O)c2cc3cc(C(=O)O)ccc3oc2=O)cc1` the Potency was inconclusive: 15.8 µM [activator, single point]. In the case of `O=C(Nc1ccc(N2CCN(C(=O)c3ccccc3)CC2)cc1)c1ccc([N+](=O)[O-])o1`, the Potency was inconclusive: 3.98 µM [activator, single point]. For `O=C(Nc1nc2ccccc2[nH]1)c1cc(F)cc(F)c1`, the Potency was inconclusive: 8.91 µM [activator, partial curve]. With `O=C(CCl)NNc1nc(-c2ccccc2)c2cc(Cl)ccc2n1` the Potency was inconclusive: 17.8 µM [activator, single point]. In the case of `O=C1c2cc([N+](=O)[O-])cc3cc([N+](=O)[O-])cc(c23)C(=O)N1c1ccccn1`, the Potency was inconclusive: 11.2 µM [activator, partial curve, poor fit]. For `OCC[C@@H]1C[C@H](O)[C@@H](O)[C@]2(OCc3cc(C(F)(F)F)ccc32)O1`, the “activation” value was inactive: -0.204%. In the case of `O=C(NC(=S)Nc1ccccn1)c1ccco1`, the Potency was inconclusive: 3.16 µM [activator, single point]. With `Cc1c(Br)cc(C(=O)NCc2ccco2)c(C)c1C` the Potency was inconclusive: 25.1 µM [activator, single point]. In the case of `CC(C)CNC(=O)c1coc(=O)c(Br)c1`, the Potency was inconclusive: 3.16 µM [activator, single point]. With `C=CCNC(=S)NNC(=O)c1cc(Cl)ccc1OC` the Potency was inconclusive: 7.08 µM [activator, partial curve, poor fit]. With `N#Cc1cnc(Nc2nc3ccccc3o2)nc1-c1ccccc1` the Potency was inconclusive: 3.98 µM [activator, single point]. In the case of `COc1cc(/C=N/Nc2ccc(C(F)(F)F)cn2)cc(OC)c1O`, the Potency was inconclusive: 17.8 µM [activator, single point]. For `CC(=O)c1sc2nc(-c3cccs3)ccc2c1N`, the Potency was active: 12.6 µM. For `O=C(/C=C/c1cccs1)c1ccco1`, the Potency was inconclusive: 10 µM [activator, partial curve, poor fit]. In the case of `COCC(=O)N(Cc1cc2cc(C)ccc2[nH]c1=O)c1ccc(C)c(C)c1`, the “activation” value was inactive: 2.31%. In the case of `COc1ccc(/C=C/C(=O)c2ccccc2)cc1COc1ccc(F)cc1`, the Potency was inconclusive: 35.5 µM [activator, single point]. In the case of `CC(/C=C/c1ccc2c(c1)OCO2)=N\NC(=O)c1cccc([N+](=O)[O-])c1`, the “activation” value was inactive: -0.541%. In the case of `O=C(Nc1cc(-c2nc3cc(Cl)ccc3o2)ccc1Cl)c1ccco1`, the Potency was inconclusive: 1.41 µM [activator, full curve, poor fit]. In the case of `CC1CCCN(C(=O)CSc2c3c(nc4cc(Cl)ccc24)CCCC3)C1` (stereo unspecified), the Potency was inconclusive: 22.4 µM [activator, single point]. With `Cc1c(C(=O)NCc2ccc(F)cc2)sc(=O)n1Cc1ccc(C(=O)c2ccccc2)cc1` the “activation” value was inactive: 3.52%. With `CC1=NN(c2ccccc2)C(=O)C1C(=S)SC1CC(=O)NC1=O` (stereo unspecified) the Potency was inconclusive: 20 µM [activator, single point]. For `CN(CC(=O)Nc1cccc([N+](=O)[O-])c1)S(=O)(=O)c1ccccc1`, the Potency was inconclusive: 22.4 µM [activator, single point]. For `CCOC(=O)C1CCN(C(=O)CCc2nnc3ccc(NCc4ccco4)nn23)CC1`, the Potency was inconclusive: 22.4 µM [activator, single point]. For `COc1ccc(CNc2ncc(-c3ccccc3)n2C)c2ccccc12`, the “activation” value was inactive: 0.699%. For `O=C(NCCc1csc(-c2ccccc2)n1)c1c(F)cccc1Cl`, the “activation” value was inactive: 0.499%. In the case of `Cc1[nH]nc2c1C(c1ccc(-c3ccc(Cl)cc3)o1)C(C#N)=C(N)O2` (stereo unspecified), the Potency was active: 15.8 µM. For `COc1ccc(S(=O)(=O)NCC(c2ccc3c(c2)OCO3)N2CCN(C)CC2)cc1OC` (stereo unspecified), the “activation” value was inactive: -0.898%. With `O=C(Nc1cccc([N+](=O)[O-])c1)c1cnccn1` the Potency was inconclusive: 8.91 µM [activator, partial curve, poor fit]. With `CCn1c(NC(=O)c2ccccc2)nc2ccccc21` the Potency was inconclusive: 2.51 µM [activator, full curve, poor fit]. In the case of `C=CC[C@@H](CC(=O)N[C@@H](CO)Cc1ccccc1)C(=O)N[C@H](COC(=O)[C@H](CC=C)CC(=O)OC(C)(C)C)Cc1c[nH]c2ccccc12`, the “activation” value was inactive: -2.48%. In the case of `CC(C)c1nn2c(=O)cc(COC(=O)c3ccccc3NC(=O)c3cccc(Cl)c3)nc2s1`, the “activation” value was inactive: -1.15%. For `Nc1cccc2cccc([N+](=O)[O-])c12`, the Potency was inconclusive: 17.8 µM [activator, single point]. For `COc1ccc(C(=O)/C=C/c2ccc(OC)cc2OC)c(O)c1`, the Potency was inconclusive: 31.6 µM [activator, single point]. With `CC(C)(C)OC(=O)C[C@@H]1C/C=C\C[C@@H](CC(=O)N(CCO)Cc2ccccc2)C(=O)N2CCC[C@@H]2COC1=O` the “activation” value was inactive: -0.823%. With `Fc1c(F)c(F)c(/C=N/NC(=S)Nc2cccnc2)c(F)c1F` the Potency was inconclusive: 8.91 µM [activator, partial curve]. With `COc1ccccc1C1N=C(c2ccccc2C)NO1` (stereo unspecified) the Potency was inconclusive: 20 µM [activator, single point]. With `COc1cc(OC)c(C(=O)/C=C/c2ccccc2)c(O)c1O` the Potency was inconclusive: 35.5 µM [activator, single point]. With `O=C(CSC1=Nc2ccccc2N=C(c2ccc(F)cc2)C1)Nc1ccccc1` the Potency was inconclusive: 22.4 µM [activator, single point]. For `Cc1cc(C)c(NC(=O)C2CCN(c3nn4c(=O)cc(C)nc4s3)CC2)c(C)c1`, the “activation” value was inactive: -0.283%. For `O=[N+]([O-])c1cccc(/C=C/c2nc[nH]c2[N+](=O)[O-])c1`, the Potency was inconclusive: 3.55 µM [activator, full curve]. For `CCN(CC)CCCNc1ncnc2c1cnn2-c1ccc(C)c(C)c1`, the “activation” value was inactive: 8.43%. With `O=C(Nc1nc2c(F)cc(F)cc2s1)C1CC(=O)N(Cc2ccco2)C1` (stereo unspecified) the Potency was inconclusive: 20 µM [activator, single point]. For `Cc1ccc(CCNc2ncnc3onc(-c4ccc(Cl)cc4)c23)cc1`, the “activation” value was inactive: 0.299%. With `COc1ccc(/C=C/C(=O)Nc2nc(-c3cccs3)ns2)cc1` the Potency was inconclusive: 3.98 µM [activator, partial curve, poor fit]. For `O=C(O)c1ccc(N/N=C/C(Br)=C/c2ccccc2)cc1`, the Potency was inconclusive: 15.8 µM [activator, single point]. With `BrC(/C=N/Nc1nc(N2CCOCC2)nc(N2CCOCC2)n1)=C/c1ccccc1` the Potency was inconclusive: 17.8 µM [activator, single point]. For `Cc1ccc(C)c(NC(=S)NC(NC(=O)/C=C/c2ccccc2)C(Cl)(Cl)Cl)c1` (stereo unspecified), the “activation” value was inactive: -0.294%. With `O=C(C1CC(=O)N(c2ccccc2)C1)N1CCN(c2ccccc2F)CC1` (stereo unspecified) the “activation” value was inactive: 0.064%. In the case of `Fc1ccc(Sc2ccccc2CNC2=NCCN2)cc1`, the “activation” value was inactive: 3.02%. With `C=CCc1c(C)nc(-c2ccccc2)nc1Nc1ccc(O)cc1` the “activation” value was inactive: 4.06%. In the case of `CC1CCN(C(=O)CCN2C(=O)/C(=C/c3cccs3)SC2=S)CC1`, the Potency was inconclusive: 2.82 µM [activator, full curve, poor fit]. For `Cc1cc(=O)oc2cc(NC(=O)C3COc4ccccc4O3)ccc12` (stereo unspecified), the Potency was inconclusive: 3.98 µM [activator, partial curve]. With `COc1ccc(Oc2coc3cc(OC(=O)/C=C/c4ccc(F)cc4)ccc3c2=O)cc1` the “activation” value was inactive: -0.0193%. With `O=C(CCl)Nc1ncc(S(=O)(=O)c2ccc([N+](=O)[O-])cc2)s1` the Potency was inconclusive: 31.6 µM [activator, single point]. For `CN1C2CCC1/C(=C\c1ccccc1)C(=O)/C2=C\c1ccccc1`, the Potency was inconclusive: 2.82 µM [activator, full curve, poor fit]. In the case of `C(=N\Nc1nc2ccccc2s1)/c1cccs1`, the Potency was inconclusive: 3.16 µM [activator, partial curve, poor fit]. For `Cn1nnnc1Sc1ncnc2scc(-c3ccc(C(F)(F)F)cc3)c12`, the Potency was inconclusive: 2.51 µM [activator, partial curve, poor fit]. In the case of `COc1ccccc1NC(=O)c1c(NCc2ccc(C)o2)sc2c1CCCCC2`, the Potency was inconclusive: 22.4 µM [activator, single point]. In the case of `Cc1cc(C(=O)COC(=O)c2ccc([N+](=O)[O-])o2)c(C)n1CC1CCCO1` (stereo unspecified), the Potency was active: 15.8 µM. With `CC(=O)c1ccc(NC(=O)c2cc(C)nc3c2c(C)nn3-c2ccc(C)cc2)cc1` the “activation” value was inactive: 3.6%. With `O=C(Cc1ccc(Cl)cc1Cl)NCc1cccnc1` the “activation” value was inactive: 0.372%. For `O=C(Nc1cccc2nsnc12)c1ccc(F)cc1`, the Potency was active: 11.2 µM. For `CCOc1ccc(-c2cc(C)n3nc(C(N)=O)cc3n2)cc1`, the “activation” value was inactive: 1.98%. In the case of `Oc1ccc2ccccc2c1N=Nc1ccccn1`, the Potency was inconclusive: 3.55 µM [activator, partial curve, poor fit]. For `O=C1CC(Sc2nnnn2C2CCCCC2)C(=O)N1c1ccccc1` (stereo unspecified), the Potency was inconclusive: 31.6 µM [activator, single point]. For `O=C(/C=C/c1cccnc1)/C=C/c1cccnc1`, the Potency was inconclusive: 5.62 µM [activator, single point]. For `O=C(O)C(=O)/C(=C\c1ccsc1)c1ccc2ccccc2n1`, the Potency was inconclusive: 15.8 µM [activator, partial curve, poor fit].
